# In publication PMC4336329 (PLoS ONE, 2015):
# Among all 310,000 compounds or so, about 14,000 (4.5%) showed an effect of 50% or more. Effects have a minus sign here. The list shows a part of the results.
# Target: human ether-à-go-go-related gene (hERG) potassium channel (human, UniProt Q12809)
# Assay: primary screen, population patch clamp on CHO cells stably expressing hERG
# 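Also: peak tail current of the secondary pulse compared with the same well before compound.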
# Sequence of human ether-à-go-go-related gene (hERG) potassium channel (Q12809 whole entry, looked up): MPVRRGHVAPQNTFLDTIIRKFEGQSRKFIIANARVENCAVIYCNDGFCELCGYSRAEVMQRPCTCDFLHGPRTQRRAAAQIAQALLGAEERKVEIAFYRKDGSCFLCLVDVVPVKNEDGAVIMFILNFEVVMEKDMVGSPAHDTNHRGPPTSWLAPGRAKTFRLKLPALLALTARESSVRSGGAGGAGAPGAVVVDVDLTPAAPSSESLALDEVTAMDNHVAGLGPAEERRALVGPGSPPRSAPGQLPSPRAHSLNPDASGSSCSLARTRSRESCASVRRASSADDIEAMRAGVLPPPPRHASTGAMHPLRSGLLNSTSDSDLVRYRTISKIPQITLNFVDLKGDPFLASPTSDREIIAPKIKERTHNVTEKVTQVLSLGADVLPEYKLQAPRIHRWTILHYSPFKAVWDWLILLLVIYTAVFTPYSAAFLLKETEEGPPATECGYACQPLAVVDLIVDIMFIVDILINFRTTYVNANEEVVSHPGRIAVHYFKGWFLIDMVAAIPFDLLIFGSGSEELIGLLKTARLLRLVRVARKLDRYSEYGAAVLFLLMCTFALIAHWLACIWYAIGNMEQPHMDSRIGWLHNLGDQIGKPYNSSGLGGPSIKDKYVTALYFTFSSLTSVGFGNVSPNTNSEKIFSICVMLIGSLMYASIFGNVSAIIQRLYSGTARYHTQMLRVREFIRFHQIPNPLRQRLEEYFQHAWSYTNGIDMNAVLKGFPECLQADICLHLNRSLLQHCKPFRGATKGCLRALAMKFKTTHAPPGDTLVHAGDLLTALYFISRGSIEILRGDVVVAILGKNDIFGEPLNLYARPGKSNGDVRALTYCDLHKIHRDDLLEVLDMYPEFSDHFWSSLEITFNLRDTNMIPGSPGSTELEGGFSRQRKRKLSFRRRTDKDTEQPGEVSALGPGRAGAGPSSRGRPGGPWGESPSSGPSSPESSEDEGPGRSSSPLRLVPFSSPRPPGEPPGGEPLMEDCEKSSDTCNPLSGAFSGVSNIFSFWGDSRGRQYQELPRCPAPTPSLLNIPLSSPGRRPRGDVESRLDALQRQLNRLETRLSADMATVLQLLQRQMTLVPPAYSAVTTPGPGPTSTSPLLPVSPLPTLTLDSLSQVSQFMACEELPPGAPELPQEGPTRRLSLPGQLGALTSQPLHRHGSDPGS
row,Structure (SMILES),"hERG current change (%, negative = inhibition) at 10uM"
1,COc1ccc(S(=O)(=O)N2CCOCC2)cc1NC(=O)COC(=O)C1CCC1,-6.23%
2,Cc1ccccc1C(=O)Nc1c(C(=O)N2CCN(C)CC2)cnn1-c1ccccc1,-17.3%
3,Br.COc1cc2c(cc1OC)-c1c(OC)c(OC)cc3c1[C@H](C2)[NH+](C)CC3,-16.7%
4,O=C(CCC1CCCC1)N1CCN(C(=O)c2cccnc2)CC1,-20.8%
5,CN(/N=C\c1ccc(O)c(O)c1)c1nc(-c2ccccc2)cc(-c2ccccc2)n1,13.5%
6,CC(=O)Nc1nnc(SCc2ccc(C(=O)Nc3ccccc3F)cc2)s1,17.9%
7,C=CCn1c(=O)c(C(=O)Nc2ccccc2S(N)(=O)=O)c(O)c2ccccc21,24.4%
8,COc1ccccc1C/C(N)=N/OC(=O)c1ccco1,0.888%
9,Cc1c(Cl)c([N+](=O)[O-])nn1CC(=O)N1CCc2ccccc2C1,1.08%
10,O=C(CCc1nc2ccccc2c(=O)[nH]1)OCc1ccccc1F,-2.75%
11,CCC1CCCCN1C(=O)COC(=O)CN(C)S(=O)(=O)c1ccc(NC(C)=O)cc1 (centres unmarked),7.22%
12,CCn1c(O)c(/C=N/NC(=O)c2ccccc2)c(=O)n(CC)c1=S,13.6%
13,O=C(Cc1ccccc1)NCCCc1ccccc1,9.42%
14,CCOC(=O)C1=C(COC(=O)/C=C/c2ccc(C)o2)NC(=O)NC1C (centres unmarked),-18.8%
15,COc1ccc(S(=O)(=O)N(C)c2ccc(C(=O)N3CCC(C(N)=O)CC3)cc2)cc1,-6.34%
16,CN(C)S(=O)(=O)c1cccc(NC(=O)Cc2ccc(-c3ccccc3)cc2)c1,6.71%
17,CCn1c(COc2ccccc2)nnc1SCC(=O)NC1CC1,6.41%
18,Cc1cccc(NC(=O)CCS(=O)(=O)c2cccc3nsnc23)c1C,17.9%
19,O=C(NCc1ccco1)c1ccc(CS(=O)(=O)c2cccc(C(F)(F)F)c2)o1,-60.3%
20,Cc1cc(C)cc(NC(=O)Cc2ccc(NC3=NC4CS(=O)(=O)CC4S3)cc2)c1 (centres unmarked),9.81%
21,CCCCn1c(N)c(N(CC(C)C)C(=O)c2c(-c3ccccc3)noc2C)c(=O)[nH]c1=O,-3.01%
22,CCN1CCN(c2cc(C)c3cc(NC(=S)N4CCC5(CC4)OCCO5)ccc3n2)CC1,-21.3%

row,Structure (SMILES),"hERG current change (%, negative = inhibition) at 10uM"
1,N#Cc1ccc(Oc2ccc(C(N)=O)cc2)cc1C#N,-8.43%
2,O=C(c1cc2ccccc2oc1=O)N(Cc1ccco1)Cc1cccs1,-58.3%
3,CC(=O)Nc1cccc(Oc2ncnc3scc(-c4ccc(C(C)C)cc4)c23)c1,18.4%
4,CS(=O)(=O)O.Cc1cc2c(cc1[N+](=O)[O-])NC(CNC(C)C)CC2 (centres unmarked),-25%
5,COC(=O)[C@H](CCSC)NC(=O)Nc1ccc(OC)cc1,10.5%
6,Cc1ccccc1NC(=O)CN1C(=O)c2ccccc2C1=O,8.65%
7,COc1ccc(CN2CCn3ncc(C(=O)Nc4ccccc4)c3C2=O)cc1,-1.98%
8,Cc1cc(C(=O)COc2ccccc2Cl)c(C)n1C1CC1,-5.85%
9,C=CCNC(=O)c1ccccc1NC(=O)Nc1ccccc1,5.28%
10,Cc1ccc(OCCCC(=O)Nc2ccc(S(=O)(=O)Nc3cc(C)nc(C)n3)cc2)cc1,6.38%
11,COc1cccc(C(=O)n2cnnc2N)c1OC,6.77%
12,Cc1cc(/C=N/NC(=O)c2nn(C)cc2Cl)c(C)n1-c1cccc(Br)c1,8.09%
13,Cc1ccc(S(=O)(=O)CCC(=O)OCC(=O)NCCc2ccc(F)cc2)cc1,-0.226%
14,CC(C)C[C@H]1CN=C(Nc2ccccc2)N1CC1CCC(C)CC1 (some centres unmarked),-50.3%
15,O=C(c1cc(-c2ccc(Br)cc2)on1)N1CCCC1,10.3%
16,COc1ccc(CNC(=O)CSc2n[nH]c(C)c2[N+](=O)[O-])cc1,-10.9%
17,COC(=O)c1ccc(C(=O)OC)c(NC(=O)COC(=O)c2ccccc2OC)c1,5.87%
18,O=C(NCc1ccc2c(c1)OCO2)C1Cc2ccccc2CN1C(=O)c1ccco1 (centres unmarked),-59%
19,CCOC(=O)c1c(NC(=O)CS(=O)(=O)c2cn(CC)c3ccccc23)sc2c1CCCC2,6.26%
20,CN(CC(=O)Nc1ccc(F)cc1)C(=O)c1cn(-c2ccccc2)nc1-c1cccs1,-17.8%
21,CC1CCc2c(sc3ncn4c(SCC(=O)NCc5ccco5)nnc4c23)C1 (centres unmarked),3.8%
22,Cc1c(C(=O)NC2CCCc3ccccc32)oc2ccc(S(=O)(=O)N3CCOCC3)cc12 (centres unmarked),-2.45%
